The other results are listed elsewhere or left out. Sequences were assembled here from the parent chain. Values near 0.05 are background.
B1: TEV protease; numbered along this chain (parent)
chain: MGESLFKGPRDYNPISSSICHLTNESDGHTTSLYGIGFGPFIITNKHLFRRNNGTLVVQSLHGVFKVKDTTTLQQHLVDGRDMIIIRMPKDFPPFPQKLKFREPQREERICLVTTNFQTKSMSSMVSDTSCTFPSGDGIFWKHWIQTKDGQCGSPLVSTRDGFIVGIHSASNFTNTNNYFTSVPKNFMELLTNQEAQQWVSGWRLNADSVLWGGHKVFMVKPEEPFQPVKEATQL

Variants of: B1
Assay: raw area under fraction-flipped curve 0-4 h after induction (AUC4h, not background-subtracted), DNA-recorder readout of cleavage of the substrate (dimensionless); higher = more cleavage of the substrate by the protease variant
Conditions: temperature: 34 °C; time window: 0-4 h after rhamnose induction
Method: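 In vivo DNA recorder in E. coli TOP10(DE3) ΔrhaA at 34 °C. Each TEVp single-site mutant (parent TEVp 0) is paired with a single-site variant of the 7-mer TEVs (canonical ENLYFQ|S). The substrate sits between flexible linkers in a Bxb1-sfGFP-TEVs-SsrA fusion, so cleavage stabilises Bxb1 and speeds flipping of a recombination array, read by NGS. The value is the raw area under the fraction-flipped curve over 0-4 h after rhamnose induction (AUC4h), with ≥20 reads per time point. It is not background-subtracted; inactive controls average about 0.047.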
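Also: Bxb1 expression induced with 0.2% (w/v) L-rhamnose at OD600 near 0.5, cultures sampled hourly, flipped fraction per protease–substrate barcode pair counted by paired-end Illumina sequencing.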

Row | Variant | area with substrate CNLYFQS | area with substrate FNLYFQS | area with substrate GNLYFQS | area with substrate HNLYFQS | area with substrate INLYFQS | area with substrate KNLYFQS | area with substrate LNLYFQS | area with substrate MNLYFQS | area with substrate PNLYFQS | area with substrate QNLYFQS | area with substrate SNLYFQS | area with substrate TNLYFQS | area with substrate VNLYFQS | area with substrate WNLYFQS | area with substrate YNLYFQS | area with substrate RNLYFQS | area with substrate NNLYFQS | area with substrate DNLYFQS
1 | E25A | 0.0572 | 0.0779 | 0.0536 | 0.0735 | 0.0726 | 0.0699 | 0.0783 | 0.0782 | 0.0737 | 0.0339 | 0.0716 | 0.064 | 0.0694 | 0.062 | 0.0623 | – | – | –
2 | S26V | 0.0643 | – | 0.0777 | 0.059 | – | – | 0.0578 | – | 0.0696 | – | – | – | 0.0551 | 0.061 | 0.0543 | 0.06 | – | –
3 | D27V | 0.0619 | 0.0802 | 0.105 | 0.065 | – | 0.0591 | – | 0.0647 | 0.0598 | – | 0.0441 | 0.0543 | – | 0.0564 | 0.0658 | – | 0.0608 | –
4 | G28H | 0.0697 | 0.0609 | – | – | – | 0.0612 | 0.0508 | – | – | – | – | 0.0797 | – | – | 0.0602 | 0.0655 | – | –
5 | G28M | 0.0556 | 0.0452 | 0.0487 | 0.0647 | – | – | 0.059 | – | – | – | 0.0642 | 0.0544 | – | 0.0596 | 0.048 | 0.0271 | – | –
6 | G28S | 0.0598 | – | 0.073 | 0.0603 | – | 0.0592 | 0.0818 | 0.0562 | 0.066 | – | 0.0675 | 0.0426 | 0.075 | 0.0497 | 0.0608 | 0.0636 | 0.0563 | –
7 | H29Q | 0.0741 | 0.068 | 0.0632 | – | – | – | 0.0955 | – | 0.0523 | – | – | 0.0652 | – | 0.0533 | – | – | – | –
8 | H29W | 0.0794 | 0.0604 | 0.0556 | 0.0695 | 0.0517 | 0.0654 | – | 0.0661 | 0.0962 | – | 0.0806 | 0.0701 | 0.0673 | 0.0469 | 0.0643 | – | 0.0754 | –
9 | H29Y | 0.157 | – | – | 0.0842 | 0.0649 | 0.018 | 0.031 | – | 0.0633 | – | – | – | – | 0.0543 | – | 0.0274 | 0.0838 | –
10 | T31C | 0.0719 | 0.0703 | 0.0622 | 0.0576 | 0.0589 | 0.0602 | – | 0.0765 | 0.0683 | – | 0.0669 | 0.0689 | – | 0.0498 | 0.0642 | – | 0.0572 | –
11 | T31G | 0.0611 | 0.0517 | 0.0485 | 0.0597 | 0.0631 | 0.0782 | 0.0532 | 0.0654 | 0.0632 | – | 0.0613 | 0.0567 | 0.064 | 0.0522 | 0.0435 | 0.053 | 0.064 | –
12 | T31R | 0.0811 | – | 0.0546 | 0.0812 | – | – | 0.068 | – | 0.0549 | 0.0584 | – | 0.0597 | 0.0599 | 0.0598 | 0.0565 | – | – | –
13 | S32N | 0.0645 | 0.0742 | 0.0671 | 0.0667 | – | 0.0669 | 0.0597 | – | 0.0624 | 0.062 | – | 0.0797 | 0.0758 | 0.0478 | – | – | 0.0622 | –
14 | L33F | 0.0571 | 0.0678 | 0.0754 | 0.0615 | 0.0521 | 0.073 | 0.0566 | 0.0635 | 0.0424 | 0.0674 | 0.0598 | 0.0599 | 0.0481 | 0.0604 | – | 0.0582 | 0.0574 | –
15 | L33Q | 0.0561 | 0.0674 | 0.0827 | 0.0453 | 0.0359 | 0.0625 | 0.0525 | 0.0594 | 0.0608 | 0.0539 | 0.0637 | 0.0653 | 0.0593 | 0.0582 | 0.0655 | 0.0798 | – | –
16 | L33V | 0.0539 | 0.0655 | 0.0464 | 0.0648 | – | – | 0.0712 | 0.0639 | 0.0531 | – | 0.0639 | 0.0647 | – | 0.0591 | – | – | 0.0643 | –
17 | Y34C | 0.0536 | – | 0.0668 | 0.0654 | 0.0562 | – | 0.0861 | – | 0.0664 | – | 0.0834 | 0.0618 | 0.0642 | 0.0618 | 0.0574 | 0.0744 | – | –
18 | G35L | 0.046 | 0.0666 | 0.0501 | – | 0.0406 | – | – | – | – | – | – | – | – | – | – | – | – | 0.041
19 | G35M | 0.0354 | – | – | – | – | 0.0532 | – | – | – | – | – | – | – | – | – | – | – | 0.0488
20 | I36C | 0.0715 | 0.0513 | 0.0631 | 0.066 | – | 0.0715 | 0.0571 | 0.0674 | 0.0665 | – | 0.056 | 0.051 | 0.0453 | 0.0523 | 0.0626 | – | – | –
21 | I36N | 0.0524 | 0.0517 | 0.0537 | 0.0532 | 0.0755 | 0.0484 | – | 0.0462 | – | 0.0672 | 0.0522 | 0.0459 | 0.043 | 0.037 | 0.0509 | – | 0.0474 | –
22 | G37L | 0.107 | 0.0614 | – | 0.0564 | – | – | 0.0455 | – | – | – | 0.042 | 0.0554 | 0.0576 | 0.0815 | – | 0.0325 | – | –
23 | G37R | 0.0509 | 0.0278 | – | 0.0648 | – | 0.063 | – | 0.0543 | – | – | 0.042 | 0.0551 | – | 0.0594 | – | 0.0803 | 0.0393 | –
24 | G39D | 0.0228 | – | 0.0107 | 0.05 | 0.0418 | 0.0469 | 0.0332 | 0.0582 | 0.0487 | 0.0495 | 0.0532 | 0.0474 | 0.047 | 0.0408 | 0.0432 | – | 0.0372 | –
25 | G39K | 0.0411 | – | 0.0424 | 0.0451 | 0.0411 | 0.0436 | 0.0486 | 0.0414 | 0.0367 | 0.0466 | 0.053 | 0.0523 | 0.0465 | 0.0393 | – | – | – | –
26 | G39S | 0.0544 | – | 0.0503 | 0.0383 | 0.026 | 0.0598 | 0.0407 | 0.0414 | 0.0501 | – | 0.0444 | 0.05 | – | 0.0324 | 0.0419 | 0.0498 | 0.0446 | –
27 | G39V | 0.0358 | 0.0486 | 0.0312 | 0.0438 | 0.0413 | 0.0336 | 0.0443 | 0.0421 | 0.0453 | – | 0.0401 | 0.0425 | 0.0386 | 0.0401 | 0.0396 | 0.0476 | 0.0332 | –
28 | P40A | 0.071 | 0.0694 | 0.0619 | 0.0667 | 0.0956 | 0.0707 | 0.0711 | 0.0663 | 0.0648 | – | 0.0631 | – | 0.0646 | 0.057 | 0.0544 | 0.075 | 0.0708 | –
29 | F41N | 0.0755 | 0.0707 | 0.0413 | 0.0633 | 0.06 | – | – | 0.0677 | – | 0.0659 | 0.0683 | – | – | 0.063 | 0.061 | – | 0.0577 | –

— the supplement of paper PMC12217912
